17 molecules from article PMC3103547 can be followed below.

Residue numbers refer to the chain shown, from its start. Names and notes keep the numbering of the source. Results are given in words; binding and its absence hold for the method and conditions named. Some results given as binding are weak or reduced against the parent protein; the word gives no strength. Where a sequence is shown, tags or fusion partners need not be part of it.

Holding throughout (experiment): native gel or EMSA; HEK cells 48 h after transfection, scraped into ice cold native gel buffer (0.62 mM Tris HCl pH 6.8, 10% glycerol), sonicated briefly; 7.5% native polyacrylamide gel, Western blot with anti-V5; upper region dimer, lower region monomer
(In EMSA bound probe runs differently from free probe, usually more slowly.)

The target of test [1] is Spermine synthase (SMS), wild type, V5-tagged (human) (UniProt P52788).
For test [2], the target named is Spermine synthase (SMS) I150E, V5-tagged (human) (UniProt P52788).
In test [3] the target is Spermine synthase (SMS) V132Q, V5-tagged (human) (UniProt P52788).
The target in test [4] is Spermine synthase (SMS) V132D, V5-tagged (human) (UniProt P52788).
Test [5] addresses Spermine synthase (SMS) G56Y, V5-tagged (human) (UniProt P52788).
The target of test [6] is Spermine synthase (SMS) I150R, V5-tagged (human) (UniProt P52788).
For test [7], the target named is Spermine synthase (SMS) I150H, V5-tagged (human) (UniProt P52788).
Test [8] addresses Spermine synthase (SMS) G56L, V5-tagged (human) (UniProt P52788).
The target in test [9] is Spermine synthase (SMS) V132W, V5-tagged (human) (UniProt P52788).
Test [10] has as its target Spermine synthase (SMS) I150D, V5-tagged (human) (UniProt P52788).
Test [11] has as its target Spermine synthase (SMS) V132G, V5-tagged (human) (UniProt P52788).
Test [12] has as its target Spermine synthase (SMS) G56W, V5-tagged (human) (UniProt P52788).
In test [13] the target is Spermine synthase (SMS) G56D, V5-tagged (human) (UniProt P52788).
The target of test [14] is Spermine synthase (SMS) I150T, V5-tagged (human) (UniProt P52788).
Test [15] addresses Spermine synthase (SMS) V132E, V5-tagged (human) (UniProt P52788).
The target in test [16] is Spermine synthase (SMS) V132R, V5-tagged (human) (UniProt P52788).
For test [17], the target named is Spermine synthase (SMS) I150Q, V5-tagged (human) (UniProt P52788).

B1: Spermine synthase (SMS), wild type, V5-tagged (enzyme, UniProt P52788 1-366)
chain: MAAARHSTLDFMLGAKADGETILKGLQSIFQEQGMAESVHTWQDHGYLATYTNKNGSFANLRIYPHGLVLLDLQSYDGDAQGKEEIDSILNKVEERMKELSQDSTGRVKRLPPIVRGGAIDRYWPTADGRLVEYDIDEVVYDEDSPYQNIKILHSKQFGNILILSGDVNLAESDLAYTRAIMGSGKEDYTGKDVLILGGGDGGILCEIVKLKPKMVTMVEIDQMVIDGCKKYMRKTCGDVLDNLKGDCYQVLIEDCIPVLKRYAKEGREFDYVINDLTAVPISTSPEEDSTWEFLRLILDLSMKVLKQDGKYFTQGNCVNLTEALSLYEEQLGRLYCPVEFSKEIVCVPSYLELWVFYTVWKKAKP
With B1, in test [1], the binding result is reported as “binds”.

B2: Spermine synthase (SMS) I150E, V5-tagged (enzyme, UniProt P52788 1-366)
chain: B1 chain with I150E
In the case of B2, the binding entry in test [2] is “binds”.

B3: Spermine synthase (SMS) V132Q, V5-tagged (enzyme, UniProt P52788 1-366)
chain: B1 chain with V132Q
Take B3: in test [3], the binding entry is “binds”.

B4: Spermine synthase (SMS) V132D, V5-tagged (enzyme, UniProt P52788 1-366)
chain: B1 chain with V132D
B4: the binding entry in test [4] is on record as “binds”.

B5: Spermine synthase (SMS) G56Y, V5-tagged (enzyme, UniProt P52788 1-366)
chain: B1 chain with G56Y
As to B5, the binding entry in test [5] is “no binding”.

B6: Spermine synthase (SMS) I150R, V5-tagged (enzyme, UniProt P52788 1-366)
chain: B1 chain with I150R
On to B6, for which the binding entry in test [6] is given as “binds”.

B7: Spermine synthase (SMS) I150H, V5-tagged (enzyme, UniProt P52788 1-366)
chain: B1 chain with I150H
Regarding B7, the binding entry in [7] is recorded as “binds”.

B8: Spermine synthase (SMS) G56L, V5-tagged (enzyme, UniProt P52788 1-366)
chain: B1 chain with G56L
Take B8: in [8], the binding result is “no binding”.

B9: Spermine synthase (SMS) V132W, V5-tagged (enzyme, UniProt P52788 1-366)
chain: B1 chain with V132W
Consider B9, for which the binding result in test [9] is listed as “binds”.

B10: Spermine synthase (SMS) I150D, V5-tagged (enzyme, UniProt P52788 1-366)
chain: B1 chain with I150D
As for B10, in test [10], the binding entry is on record as “binds”.

B11: Spermine synthase (SMS) V132G, V5-tagged (enzyme, UniProt P52788 1-366)
chain: B1 chain with V132G
For B11, the binding result in test [11] is listed as “binds”.

B12: Spermine synthase (SMS) G56W, V5-tagged (enzyme, UniProt P52788 1-366)
chain: B1 chain with G56W
For B12, in [12], the binding entry is “no binding”.

B13: Spermine synthase (SMS) G56D, V5-tagged (enzyme, UniProt P52788 1-366)
chain: B1 chain with G56D
Take B13: the binding entry in test [13] is reported as “no binding”.

B14: Spermine synthase (SMS) I150T, V5-tagged (enzyme, UniProt P52788 1-366)
chain: B1 chain with I150T
Take B14: the binding result in [14] is “binds”.

B15: Spermine synthase (SMS) V132E, V5-tagged (enzyme, UniProt P52788 1-366)
chain: B1 chain with V132E
Regarding B15, the binding entry in test [15] is “binds”.

B16: Spermine synthase (SMS) V132R, V5-tagged (enzyme, UniProt P52788 1-366)
chain: B1 chain with V132R
For B16, the binding result in [16] is given as “binds”.

B17: Spermine synthase (SMS) I150Q, V5-tagged (enzyme, UniProt P52788 1-366)
chain: B1 chain with I150Q
B17: the binding result in test [17] was “binds”.
